# “And” between values parts separate entries of the source, which are not always exact repeats. Identical values can stand only once. This list was built around the results that the source calls inconclusive (neither active nor inactive); the mix of calls is not that of the screen. For some of these results: Potencies of inconclusive entries are doubtful fits and often do not repeat. Where a structure was tested more than once in an assay, its records may differ in their call. The source made the active and inactive calls. Calls come from the whole dose curve; as a rule, active = well fitted curve in the direction sought with a large enough effect; inconclusive = small, poorly fitted or top-dose-only effect, or another doubt; inactive = no such curve, though single readings can be large; an effect the other way counts as inactive or inconclusive.
# What was measured:
# HEK293 = assay: Cytotoxic Profiling of Annotated Libraries Using Quantitative High-Throughput Screening (AID 1296008); settings: Five cell lines viability, CellTiter-Glo ATP luminescence, 48-72 h; max response: stronger effect = lower value; note: nearly all actives have a fitted effect of over 60% in size
# Summary of the method: (§1)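 Compounds were pin-transferred onto cells and incubated 48 or 72 hr at 37 degree Celsius, 95% humidity. CellTiter-Glo was added, plates sat 10 min at room temperature, then ATP-coupled luminescence was imaged as the viability read-out.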
# HaCat = assay: as above; settings: Five cell lines viability, CellTiter-Glo ATP luminescence, 48-72 h; max response: stronger effect = lower value
# Summary of the method: as §1
# KB-3-1 = assay: as above; settings: Five cell lines viability, CellTiter-Glo ATP luminescence, 48-72 h; max response: stronger effect = lower value
# Summary of the method: as §1
# MCC-13 = assay: qHTS assay to identify novel small-molecules to repurpose for Merkel cell carcinoma treatment (AID 1296009); settings: MCC and control cell lines, CellTiter-Glo viability, 72 h; series mostly up to 46 µM; note: nearly all actives have a fitted effect of over 60% in size
# Summary of the method: (§2)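 Luminescence from CellTiter-Glo, read 10 min after addition at room temperature, reported viability following a 72 hr, 37 degree celsius treatment with NPC or MIPE compounds in titration; values normalized to plate controls.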
# MKL-1 = assay: as above; settings: MCC and control cell lines, CellTiter-Glo viability, 72 h; series mostly up to 46 µM
# Summary of the method: as §2
# MKL-2 = assay: as above; settings: MCC and control cell lines, CellTiter-Glo viability, 72 h; activity change, negative = cytotoxicity: at 46 µM (top of the series)
# Summary of the method: as §2
# UISO = assay: as above; settings: MCC and control cell lines, CellTiter-Glo viability, 72 h; series mostly up to 46 µM
# Summary of the method: as §2
# WaGa = assay: as above; settings: MCC and control cell lines, CellTiter-Glo viability, 72 h; series mostly up to 46 µM
# Summary of the method: as §2
# C33A = assay: Primary qHTS to identify gynecologic anti-cancer compounds using libraries of approved drugs and bioactive compounds (AID 1345084); settings: Gynecologic cancer cell panel viability, ATPlite luminescence, 48 h; series mostly up to 57.5 µM; note: nearly all actives have a fitted effect of over 55% in size
# Summary of the method: (§3)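 ATP-based viability (ATPlite), 1,000 cells/well, 16 h pre-incubation, 48 h compound at 37 C, 5% CO2, 15 min RT before read.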
# CASKI = assay: as above; settings: Gynecologic cancer cell panel viability, ATPlite luminescence, 48 h; series mostly up to 57.5 µM
# Summary of the method: as §3
# Es-2 = assay: as above; settings: Gynecologic cancer cell panel viability, ATPlite luminescence, 48 h; series mostly up to 57.5 µM
# Summary of the method: as §3
# Hek293T = assay: as above; settings: Gynecologic cancer cell panel viability, ATPlite luminescence, 48 h, control line for the selectivity index; series mostly up to 57.5 µM
# Summary of the method: as §3
# OV90 = assay: as above; settings: Gynecologic cancer cell panel viability, ATPlite luminescence, 48 h; series mostly up to 57.5 µM
# Summary of the method: as §3
# PA-1 = assay: as above; settings: Gynecologic cancer cell panel viability, ATPlite luminescence, 48 h; series mostly up to 57.5 µM
# Summary of the method: as §3
# SKOV3 = assay: as above; settings: Gynecologic cancer cell panel viability, ATPlite luminescence, 48 h; series mostly up to 57.5 µM
# Summary of the method: as §3
# NIH3T3 = assay: Cytotoxic Profiling of Annotated Libraries Using Quantitative High-Throughput Screening (AID 1296008); settings: Five cell lines viability, CellTiter-Glo ATP luminescence, 48-72 h; max response: stronger effect = lower value; note: nearly all actives have a fitted effect of over 60% in size
# Summary of the method: as §1
# MCC-26 = assay: qHTS assay to identify novel small-molecules to repurpose for Merkel cell carcinoma treatment (AID 1296009); settings: MCC and control cell lines, CellTiter-Glo viability, 72 h; activity change, negative = cytotoxicity: at 46 µM (top of the series); note: nearly all actives have a fitted effect of over 60% in size
# Summary of the method: as §2
# HeLa = assay: Primary qHTS to identify gynecologic anti-cancer compounds using libraries of approved drugs and bioactive compounds (AID 1345084); settings: Gynecologic cancer cell panel viability, ATPlite luminescence, 48 h; series mostly up to 57.5 µM; note: nearly all actives have a fitted effect of over 55% in size
# Summary of the method: as §3
# JEG-3 = assay: as above; settings: Gynecologic cancer cell panel viability, ATPlite luminescence, 48 h; series mostly up to 57.5 µM
# Summary of the method: as §3
# CAOV3 = assay: as above; settings: Gynecologic cancer cell panel viability, ATPlite luminescence, 48 h; series mostly up to 57.5 µM
# Summary of the method: as §3
# % is set by controls: 0 for no effect and ±100 for the full control effect; potency is the fitted concentration of half-maximal effect; tags give direction and shape of the fitted curve.
structure (smiles),measurement,setting,value
Cc1nc2ccccc2n1Cc1ccc(Cl)cc1,Potency,HEK293,active: 1.68 µM
same,Potency,HaCat,"inconclusive: 29.9 µM [inhibitor, single point]"
same,max response,KB-3-1,inactive: -8.87%
same,Potency,MCC-13,inactive
same,Potency,MKL-1,"inconclusive: 8.41 µM [inhibitor, partial curve]"
same,Potency,MKL-2,"inconclusive: 6.68 µM [inhibitor, full curve]"
same,Potency,UISO,"inconclusive: 4.22 µM [inhibitor, partial curve]"
same,Potency,WaGa,"inconclusive: 5.96 µM [inhibitor, full curve]"
same,Potency,C33A,"inconclusive: 1.58 µM [cytotoxic, full curve]"
same,Potency,CASKI,"inconclusive: 25.1 µM [cytotoxic, single point]"
same,Potency,Es-2,"inconclusive: 22.4 µM [cytotoxic, single point]"
same,Potency,Hek293T,"inconclusive: 7.94 µM [cytotoxic, full curve]"
same,Potency,OV90,active: 8.91 µM
same,Potency,PA-1,"inconclusive: 6.31 µM [cytotoxic, partial curve]"
same,Potency,SKOV3,active: 3.98 µM
Cc1ccccc1C(C(=O)NC1CCCC1)N(C(=O)Cn1cnc2ccccc21)c1cccc(F)c1 (centres undefined),Potency,HEK293,"inconclusive: 37.2 µM [inhibitor, single point]"
CCCS(=O)c1ccc2nc(NC(=O)OC)[nH]c2c1 (centres undefined),Potency,HEK293,"inconclusive: 23.5 µM [inhibitor, partial curve, poor fit] and inconclusive: 23.1 µM [inhibitor, partial curve, poor fit]"
same,Potency,HaCat,"inconclusive: 26.6 µM [inhibitor, single point] and inconclusive: 37.2 µM [inhibitor, single point] and inconclusive: 20.6 µM [inhibitor, partial curve, poor fit]"
same,Potency,KB-3-1,"inconclusive: 33.2 µM [inhibitor, single point] and active: 20.6 µM"
same,Potency,NIH3T3,"inconclusive: 33.5 µM [inhibitor, single point] and inconclusive: 29.1 µM [inhibitor, single point]"
same,Potency,MCC-13,"inconclusive: 18.8 µM [inhibitor, single point]"
same,Potency,MCC-26,"inconclusive: 16.8 µM [inhibitor, partial curve, poor fit]"
same,Potency,MKL-1,"inconclusive: 29.9 µM [inhibitor, single point]"
same,Potency,MKL-2,"inconclusive: 16.8 µM [inhibitor, single point] and inconclusive: 14.8 µM [inhibitor, partial curve, poor fit]"
same,Potency,UISO,"inconclusive: 15 µM [inhibitor, partial curve] and inconclusive: 20.9 µM [inhibitor, partial curve]"
same,Potency,WaGa,"inconclusive: 26.4 µM [inhibitor, partial curve]"
same,Potency,CASKI,"inconclusive: 39.8 µM [cytotoxic, single point]"
same,Potency,Es-2,"inconclusive: 35.5 µM [cytotoxic, single point]"
same,Potency,HeLa,"inconclusive: 20 µM [cytotoxic, single point] and inconclusive: 39.8 µM [cytotoxic, single point]"
same,Potency,Hek293T,"inconclusive: 39.8 µM [cytotoxic, single point] and inconclusive: 31.6 µM [cytotoxic, single point]"
same,Potency,JEG-3,"inconclusive: 17.8 µM [cytotoxic, partial curve, poor fit]"
same,Potency,PA-1,"inconclusive: 35.5 µM [cytotoxic, single point] and active: 14.1 µM"
same,Potency,SKOV3,"inconclusive: 12.6 µM [cytotoxic, partial curve, poor fit] and inconclusive: 15.8 µM [cytotoxic, partial curve, poor fit]"
Cn1ccc2cc3c(cc21)CCN3C(=O)Nc1cccnc1,max response,HEK293,inactive: -20.9%
same,outcome,HEK293,inactive
same,Potency,HaCat,"inconclusive: 2.31 µM [inhibitor, full curve, poor fit]"
same,Potency,MKL-1,"inconclusive: 33.2 µM [inhibitor, single point]"
same,Potency,MKL-2,"inconclusive: 23.5 µM [inhibitor, single point]"
same,Potency,WaGa,"inconclusive: 23.5 µM [inhibitor, single point]"
same,Potency,CAOV3,inactive
same,Potency,CASKI,inactive
same,Potency,Hek293T,inactive
same,Potency,SKOV3,inactive
O=C(NCC1CCCCN1)c1cc(OCC(F)(F)F)ccc1OCC(F)(F)F (centres undefined),Potency,HEK293,"inconclusive: 33.2 µM [inhibitor, single point]"
same,max response,HEK293,inactive: -82.7%
same,Potency,NIH3T3,"inconclusive: 37.2 µM [inhibitor, single point]"
same,Potency,MCC-13,"inconclusive: 23.5 µM [inhibitor, single point]"
same,Potency,MKL-1,"inconclusive: 29.6 µM [inhibitor, single point]"
same,Potency,MKL-2,"inconclusive: 18.7 µM [inhibitor, partial curve, poor fit]"
same,Potency,PA-1,inactive
same,Potency,SKOV3,inconclusive: 35.5 µM
N#CC1(c2ccc(NC(=O)c3cccnc3NCc3ccncc3)cc2)CCCC1,Potency,HEK293,"inconclusive: 26.4 µM [inhibitor, single point]"
same,outcome,HaCat,inactive
same,Potency,MKL-2,inactive
O=C(NCc1ccccc1)c1csc(Nc2ccncn2)n1,Potency,HEK293,"inconclusive: 16.4 µM [inhibitor, single point]"
same,Potency,HaCat,"inconclusive: 6.51 µM [inhibitor, partial curve, poor fit]"
same,Potency,NIH3T3,"inconclusive: 26.4 µM [inhibitor, single point] and inconclusive: 29.1 µM [inhibitor, single point]"
same,Potency,MCC-13,"inconclusive: 20.9 µM [inhibitor, single point]"
same,Potency,MKL-1,active: 8.33 µM
same,Potency,CAOV3,"inconclusive: 39.8 µM [cytotoxic, single point]"
same,Potency,Es-2,inactive
same,Potency,JEG-3,inactive
same,Potency,PA-1,inactive
same,Potency,SKOV3,"inconclusive: 39.8 µM [cytotoxic, single point]"
CNCC[C@H](Oc1cccc2ccccc12)c1cccs1,Potency,HEK293,"active: 21.1 µM and inconclusive: 20.9 µM [inhibitor, partial curve]"
same,Potency,HaCat,"inconclusive: 33.5 µM [inhibitor, single point]"
same,Potency,NIH3T3,"inconclusive: 23.7 µM [inhibitor, single point] and inconclusive: 29.6 µM [inhibitor, single point]"
same,Potency,MCC-13,inactive
same,Potency,MKL-1,"inconclusive: 29.9 µM [inhibitor, single point]"
same,Potency,MKL-2,active: 16.8 µM and active: 18.7 µM
same,Potency,UISO,"inconclusive: 18.8 µM [inhibitor, single point]"
same,Potency,WaGa,"inconclusive: 29.9 µM [inhibitor, single point]"
same,Potency,C33A,"inconclusive: 35.5 µM [cytotoxic, single point]"
same,Potency,CAOV3,"inconclusive: 25.1 µM [cytotoxic, single point]"
same,Potency,CASKI,"inconclusive: 31.6 µM [cytotoxic, single point]"
same,Potency,Es-2,"inconclusive: 31.6 µM [cytotoxic, single point]"
same,Potency,Hek293T,"inconclusive: 22.4 µM [cytotoxic, single point]"
same,Potency,OV90,active: 28.2 µM
O=C(NOCC1CC1)c1ccc(F)c(F)c1Nc1ccc(I)cc1Cl,Potency,HEK293,"inconclusive: 33.5 µM [inhibitor, single point] and active: 18.7 µM and inconclusive: 29.1 µM [inhibitor, single point]"
same,Potency,HaCat,"active: 26.6 µM and inconclusive: 37.2 µM [inhibitor, single point]"
same,Potency,NIH3T3,"inconclusive: 21.1 µM [inhibitor, single point] and inconclusive: 23.5 µM [inhibitor, partial curve] and inconclusive: 18.4 µM [inhibitor, single point]"
same,Potency,MCC-13,"inconclusive: 23.7 µM [inhibitor, partial curve] and inconclusive: 10.5 µM [inhibitor, partial curve]"
same,Potency,MKL-2,"inconclusive: 7.5 µM [inhibitor, partial curve] and inconclusive: 8.33 µM [inhibitor, full curve]"
same,Potency,UISO,"active: 15 µM and inconclusive: 14.8 µM [inhibitor, partial curve]"
same,Potency,WaGa,"active: 15 µM and inconclusive: 14.8 µM [inhibitor, partial curve]"
same,Potency,C33A,"inconclusive: 39.8 µM [cytotoxic, single point]"
same,Potency,CAOV3,"inconclusive: 2.24 µM [cytotoxic, full curve, poor fit]"
same,Potency,CASKI,"inconclusive: 39.8 µM [cytotoxic, single point]"
same,Potency,Es-2,"inconclusive: 22.4 µM [cytotoxic, partial curve, poor fit]"
same,Potency,HeLa,"inconclusive: 35.5 µM [cytotoxic, single point]"
same,Potency,JEG-3,"inconclusive: 39.8 µM [cytotoxic, single point]"
same,Potency,OV90,active: 7.08 µM and active: 3.55 µM
same,Potency,PA-1,"inconclusive: 31.6 µM [cytotoxic, single point] and inconclusive: 39.8 µM [cytotoxic, single point]"
same,Potency,SKOV3,"inconclusive: 28.2 µM [cytotoxic, single point]"
